Test results reported in PubChem BioAssay AID445 (National Center for Advancing Translational Sciences (NCATS), 2006).
Screen size: about 110,000 compounds; about 40 (0.04%) were called active. The shares of active, inactive and inconclusive entries below differ from those in the screen. Calls come from the whole dose curve; as a rule, active = well fitted curve in the direction sought with a large enough effect in the signal ratio (not every such curve was filed as active); inconclusive = small, poorly fitted or top-dose-only effect, or a change in a side signal; inactive = flat fitted curve, though single readings scatter; the % refers to the signal ratio. Potencies of inconclusive entries are doubtful fits and often do not repeat.

Test: IkB Signaling;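 for IkBa stabilization activation: 0% = basal untreated cells and 100% = reference inhibitor full response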
Conditions: ABC-DLBCL IkBa-CBG/CBR dual luciferase ratio (green luciferase fused to IkBa over red control in OCI-Ly3 lymphoma cells), 4 h; IkBa stabilization activation: at 57.1 µM (top of the series), scaled: untreated 0%, proteasome inhibitor 100% unless noted
Summary of the method: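 Curves were fitted separately to fusion (green), unfused (red) and ratio luminescence, then classed by r2, magnitude and activity. Cells: OCI-Ly3, 4 h compound plus doxycycline at 37C; 10 uM MG-132 defined full response.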
Potency is the fitted concentration of half-maximal effect.

SMILES	IkBa stabilization activation	Potency
CC(=O)c1ccc(NC(=O)CCCc2nc(-c3cccc(C)c3)no2)cc1	inconclusive: 1.83% [signal inhibitor]	–
O=C(CC1C(=O)N(c2ccccc2)C(=O)N1Cc1ccc2c(c1)OCO2)Nc1ccccc1 (stereo unspecified)	inconclusive: -0.686% [signal inhibitor]	–
Cc1ccc(-c2cc3c(n2-c2ccccc2F)CC(C)(C)CC3=O)cc1	inconclusive: 0.688% [signal inhibitor]	–
CN(C)c1nc(OCCOC(=O)c2ccccc2)nc(N(C)C)n1	inactive: -0.0661%	–
CCOC(=O)c1ccc(CN(Cc2ccccc2C)S(=O)(=O)c2ccc(F)c(C(=O)Nc3cccc(OC)c3)c2)cc1	inconclusive: -0.92% [signal inhibitor]	–
CCn1nc(NC(=O)c2ccccn2)c2cc3cccc(C)c3nc21	inactive: 1.15%	–
COc1ccc(NC(=O)CN2C(=O)COc3ccc(S(=O)(=O)N4CCCCC4)cc32)cc1Cl	inactive: 0.949%	–
CCOC(=O)c1cnc2ccc(C)cc2c1NCCc1ccc(OC)c(OC)c1	inconclusive: 13.8% [signal inhibitor]	–
COc1ccc(C)cc1NC(=O)N1CCN(c2cc(-c3noc(C)n3)ccc2C)CC1	inactive: 2.9%	–
O=C(CN(CCc1ccccc1)S(=O)(=O)c1ccccc1)NCc1ccc(Cl)cc1	inconclusive: 4.65% [signal inhibitor]	–
COc1cc(CNc2ccc3c(c2)ncn3C(C)C)cc(OC)c1OC	inconclusive: -3.21% [signal inhibitor]	–
Cc1ccc(Cl)cc1N1CCN(C(=O)c2cc(S(=O)(=O)N3CCCCCC3)cn2C)CC1	inconclusive: 1.68% [signal inhibitor]	–
O=C(CSc1nc2ccccc2c(=O)[nH]1)c1cccs1	inconclusive: 14.8% [signal inhibitor]	–
CCOC(=O)c1oc2ccc(S(=O)(=O)Nc3ccc4c(c3)n(C)c(=O)n4C)cc2c1C	–	inconclusive: 25.1 µM [rising, partial curve]
COC(=O)c1ccc2c(c1)N(CC(=O)Nc1cccc(C(F)(F)F)c1)C(=O)c1ccccc1S2	inactive: -0.137%	–
O=C(CSc1nc2c([nH]c3ccccc32)c(=O)n1-c1ccccc1F)Nc1ccccc1C(F)(F)F	inconclusive: 0.852% [signal inhibitor]	–
COCCn1c(C)cc(C(=O)CSc2n[nH]c(N)n2)c1C	inactive: 2.02%	–
Cc1ccc(C(C(=O)NC2CCCC2)N(Cc2cccs2)C(=O)CNC(=O)c2cccs2)o1 (stereo unspecified)	inconclusive: 0.877% [signal inhibitor]	–
COc1ccc(NC(=O)C2CCCN(S(=O)(=O)c3ccc4c(c3)CCCN4C(C)=O)C2)cc1 (stereo unspecified)	–	inconclusive: 39.8 µM [signal inhibitor, single point]
COc1ccc(CNC(=O)C2CCN(c3nnc(-n4cccc4CNc4ccc(C)cc4)s3)CC2)c(OC)c1	inconclusive: 2.08% [signal inhibitor]	–
COc1ccc(C(=O)Nc2cc(OC)cc(OC)c2)cc1	inconclusive: 16% [signal inhibitor]	–
O=S(=O)(Nc1cccc(-c2ccc(N3CCCC3)nn2)c1)c1ccc(F)cc1F	inactive: 0.891%	–
O=S(=O)(c1ccc(F)cc1)N1CCC(n2c(C(F)(F)F)nc3cccnc32)CC1	inactive: 1.2%	–
CCOC(=O)c1c(C)n(C)c2ccc(OCC(O)CN(CC)CC)cc12 (stereo unspecified)	inactive: -3.77%	–

SMILES	IkBa stabilization activation	Potency
COc1ccc(NC(=O)CSc2c3c(nc4ccccc24)CCC3)c(OC)c1	inconclusive: 12.1% [signal inhibitor]	–
COc1cccc(Nc2sc(C(=O)c3ccc(F)cc3)c(N)c2C(=O)NCc2ccc(C)cc2)c1	inconclusive: 5.2% [signal inhibitor]	–
CCn1c(SCC(=O)Nc2ccccc2C(=O)OC)nnc1-c1ccoc1C	inactive: 0.569%	–
CCN(CC)C(=O)Cn1c(=O)cc(C)c2c(C)nn(C)c21	inactive: -0.649%	–
CCOC(=O)c1ccc(NC(=O)C(C)N(c2ccc(OCC)cc2)S(C)(=O)=O)cc1 (stereo unspecified)	inconclusive: 2.18% [signal inhibitor]	–
Cc1c(C(=O)Nc2ccc(F)c(F)c2)oc2ccc(S(=O)(=O)N(C)C3CCCCC3)cc12	inconclusive: -0.166% [signal inhibitor]	–
Cc1cc(N2CCN(C)CC2)nc2ccc(NC(=O)c3ccc4c(c3)OCO4)cc12	inconclusive: -3.8% [signal inhibitor]	–
Cc1cccc(CNC(=O)Cc2ccc(NC(=O)N3CCCCc4ccccc43)cc2)c1	inactive: 4.23%	–
Cn1c(C(=O)N2CCCC(C(=O)NCc3cccs3)C2)cc2sccc21 (stereo unspecified)	inactive: 6.59%	–
COc1ccc(CCNC(=O)CCCCn2c(=O)c3ccccc3n(Cc3ccc(Cl)cc3)c2=O)cc1OC	inconclusive: 9.14% [signal inhibitor]	–
Cc1ccc(-c2nnc(CSc3nnc(COc4ccccc4)n3-c3ccccc3)o2)cc1	inconclusive: 4.16% [signal inhibitor]	–
COc1ccc(CCn2c(N)c(C#N)c3nc4ccccc4nc32)cc1OC	inactive: -2.47%	–
Cc1cc(C#N)c(C)n1-c1cc(C(F)(F)F)ccc1N1CCOCC1	inactive: 0.848%	–
CCOC(=O)c1ccc(NC(=O)N2CCN(CCc3ccccc3)CC2)cc1	inactive: 3.7%	–
Cc1ccc(C(=O)Nc2nc(-c3nnn(-c4cccc(Cl)c4C)c3C)ns2)cc1C	inconclusive: -1.26% [signal inhibitor]	–
CCOC(=O)C1=C(CN2CCC(C)CC2)NC(=O)NC1c1ccc(Cl)cc1 (stereo unspecified)	inactive: -2.37%	–
COc1ccc(NC(=O)c2oc3c(c2C)-c2nn(Cc4ccccc4Cl)cc2CC3)cc1OC	inconclusive: 3.49% [signal inhibitor]	–
Cc1cc(-c2nn3c(-c4ccccc4)nnc3s2)c2ccccc2n1	inconclusive: 14.1% [signal inhibitor]	–
CC(C)C(C(=O)OCC(=O)c1ccc2c(c1)NC(=O)CO2)N1C(=O)c2ccccc2C1=O (stereo unspecified)	inconclusive: 2.34% [signal inhibitor]	–
O=C(Cn1ccn(-c2cccc(Cl)c2)c(=O)c1=O)c1ccc(F)cc1	inconclusive: -1.03% [signal inhibitor]	–
O=C(NCCCN1CCN(c2ccc(F)cc2)CC1)c1sc2ncccc2c1-n1cccc1	inconclusive: 0.643% [signal inhibitor]	–
CCOc1ccc(CNC(=O)c2[nH]c3ccccc3c2Sc2ccc(C)cc2)cc1	inconclusive: -0.624% [signal inhibitor]	–
COC(=O)c1ccc(Nc2cc(C)nc3nc(C)nn23)cc1	inactive: -0.299%	–
O=C(NC1CCCCC1)c1ccc(CNc2ccccc2)o1	inconclusive: 0.691% [signal inhibitor]	–

SMILES	IkBa stabilization activation	Potency
Cc1ccc(NC(=O)CCS(=O)(=O)c2ccc(Br)cc2)c(C)c1	inactive: -0.501%	–
Cc1ccc(NC(=O)c2ccco2)cc1NC(=O)CSc1nnc(-c2cccs2)n1C	inconclusive: 3.97% [signal inhibitor]	–
COc1ccc(OC)c(S(=O)(=O)N2Cc3ccccc3CC2C(=O)Nc2ccc(Cl)cc2)c1 (stereo unspecified)	inconclusive: 4.27% [signal inhibitor]	–
CCOc1ccc(-c2nn(-c3ccccc3)cc2C2NC(=O)NC(C)=C2C(=O)OC(C)C)cc1C (stereo unspecified)	inconclusive: 8.21% [signal inhibitor]	–
CC1CCCCN1c1nc(-c2ccncc2)nc2ccccc12 (stereo unspecified)	inconclusive: -4.13% [signal inhibitor]	–
O=C1C(c2ccc(F)cc2)N(Cc2ccccc2Cl)C(=O)CN1C1CCCCC1 (stereo unspecified)	inconclusive: -0.955% [signal inhibitor]	–
Cc1ccc(C(=O)N2CCC(N3CCN(Cc4ccc(F)cc4)C(=O)C3=O)CC2)cc1	inactive: -0.856%	–
CCn1c(Cn2nnc(-c3ccccc3)n2)nnc1SCc1ccc(Cl)c(Cl)c1	inconclusive: 13.7% [signal inhibitor]	–
c1ccc(-n2c(SCc3ccncc3)nnc2-c2ccco2)cc1	inactive: 0.0105%	–
COc1ccccc1NC(=O)CN1C(=O)CC(c2ccc(C)c(C)c2)=Nc2ccccc21	inconclusive: -2.44% [signal inhibitor]	–
CCCn1c(CN2CCN(C(=O)OCC)CC2)nc2c1c(=O)n(C)c(=O)n2C	–	inconclusive: 39.8 µM [falling, single point]
O=[N+]([O-])c1ccc(CSc2ncnc3c2ncn3[C@@H]2O[C@@H](CO)[C@@H](O)[C@H]2O)cc1	inactive: -6.08%	–
CC(C)Oc1ccc(CNC(=O)Nc2ccc3c(c2)N(C)C(=O)c2ccccc2S3)cc1	inactive: 0.477%	–
Nc1ccccc1O	–	inconclusive: 7.94 µM [signal inhibitor, partial curve]
Cc1cccc(Cn2c(SCc3ccc(C(=O)N4CCC(C)CC4)cc3)nc3ccncc32)c1	inconclusive: 5.07% [signal inhibitor]	–
CCn1c(CN2CCCCC2)nc2cc(NC(=O)c3ccccc3[N+](=O)[O-])ccc21	inconclusive: 7.67% [signal inhibitor]	–
Cc1nn(-c2ccccc2)c(OC(=O)c2ccc(F)cc2)c1S(=O)(=O)c1ccccc1	inconclusive: 5% [signal inhibitor]	–
CCCn1cc(S(=O)(=O)c2ccc(C)cc2)c(=O)c2cc(OC)c(OC)cc21	inconclusive: 1.54% [signal inhibitor]	–
COc1cccc(NC(=O)C(=O)NCCc2csc(-c3ccc(C)cc3)n2)c1	–	inconclusive: 15.8 µM [signal inhibitor, partial curve]
COC(=O)c1ccc(Cl)cc1NC(=O)NCc1c(-n2cccc2)sc2c1CCCC2	inactive: -2.21%	–
CCOc1ccc(C(=O)Nc2ccc(C(=O)OCc3cc(=O)n4ccsc4n3)cc2)cc1	inconclusive: -1.78% [signal inhibitor]	–
S=C(Nc1ccccc1)Nc1nccs1	–	inconclusive: 39.8 µM [rising, partial curve]
COc1cccc(N2CCN(C(=O)c3cc4c(=O)n(Cc5cccs5)ccc4nc3C)CC2)c1	inconclusive: 1.36% [signal inhibitor]	–
